Experimental findings from the RNAGym collection of RNA variant scans (doi:10.7554/elife.90254) are described below.

Sequences and labels used below:
B1: LINE1-full (parent)
chain: UACGUAGGUGGUUUUCCCCUGAUAGUGCUAAGGGGGCCUGGAAGUUUGGACUGGGCAGAGCUCAACACAGCGUGGCAAAGUGGCUGUGGCUAGACUGCCUCUCUGGAUUCCUCGUCACUCAGCAGGGCAUCUCUGAGAGAAAUGCC

The source gives no read counts; variants with many changes may rest on few reads.

The variants in this data set derive from B1. In words: self-cleavage, relative activity (ratio to wild type); higher = more cleavage; in vitro, sequencing; the parent is a self-cleaving ribozyme.
Turning to U13C G36C U96A U115C A121U, the self-cleavage is 0.05.
As for U13C A59G U85C U109A G144A, the self-cleavage came to 0.79.
To U13C U20A U26C U104A belongs 1.13.
As to U13C G74A A107G, the self-cleavage is 0.33.
To U13C A50U U73C U108C C113U U132C belongs 2.51; to U13C G36A U119A, 0.8.
To U13C A50G U91A belongs 0.92; to U13C A57G C146U, 0.82.
To U13C A78C U87A U100C U119C belongs 1.02.
Consider U13C A94G A121G C146U, for which the self-cleavage worked out at 0.
As to U13C A94U U115C, the self-cleavage came to 0.66.
For U13C U14A U91C, the self-cleavage was found to be 0.16.
Take U13C A65G U112C: the self-cleavage was determined as 0.2.
As to U13C A31U U102C, the self-cleavage amounted to 0.7.
U13C A57U U130C: the self-cleavage is 0.23.
Regarding U13C C19U U143A, the self-cleavage was 1.04.
With U13C G80U A136G, the self-cleavage was found to be 1.62.
The result for U13C U15A C123U reads 2.51.
Take U13C A59G U85C U104A: the self-cleavage turned out to be 0.28.
Turning to U13C A43G A79G, the self-cleavage came to 0.9.
The result for U13C G25U U46A U104A U143A reads 0.65; that for U13C A64G U81C U130C, 0.84; that for U13C A30U A140G, 0.36.
Turning to U13C A78U U108C A138G, the self-cleavage was determined as 2.04.
Regarding U13C A67G A141U, the self-cleavage is 1.15.
As for U13C A59G U85C A121G, the self-cleavage was 0.
Consider U13C A43U U73C, for which the self-cleavage came out at 1.26.
For U13C A69U G89A U119A, the self-cleavage was found to be 0.04.
The result for U13C G27A U47G A92U reads 0.26; that for U13C A69U U87A, 0.05.
Take U13C A59G U104A A141G: the self-cleavage was 0.22.
Turning to U13C U15C G25A G35C C56U U109C U132C U143A, the self-cleavage is 0.1.
Consider U13C U15C U115C, for which the self-cleavage stood at 0.94.
On to U13C U14C A30G, for which the self-cleavage is 0.88.
For U13C A59G A69G, the self-cleavage amounted to 0.
Consider U13C U14C A31G A141G, for which the self-cleavage worked out at 1.58.
To U13C A92G G106U belongs 0.1; to U13C A42G U46A G58A U134C, 0.07; to U13C G106A A140G, 1.62.
As for U13C A78G C110A U119C, the self-cleavage is 1.06.
On to U13C A79G U132C, for which the self-cleavage was 0.81.
Regarding U13C U15C G34U A50G, the self-cleavage was found to be 1.19.
For U13C A94U U108C, the self-cleavage is 0.39.
To U13C U14C A117U belongs 1.67.
Consider U13C C95G A129G, for which the self-cleavage stood at 0.1.
Regarding U13C G33A U81A G122A, the self-cleavage was 1.39.
To U13C C19U G34U U62C belongs 0.2; to U13C G35U G105U, 1.23.
Take U13C U20A A69U U73C U100C: the self-cleavage is 0.51.
With U13C G60U A67G, the self-cleavage is 0.02.
In the case of U13C A31U A92G, the self-cleavage came out at 0.47.
As to U13C G105U U143C, the self-cleavage was determined as 1.48.
To U13C G35A U39A G89U A107G U115A A141G belongs 0.04; to U13C A78G A136G, 2.33; to U13C A42G U115C A140G, 0.61.
As for U13C A42G A77U U115C, the self-cleavage is 2.76.
On to U13C U20C C56U U85C U100C, for which the self-cleavage stood at 0.1.
In the case of U13C G72U A79G U104C, the self-cleavage came out at 0.32.
In the case of U13C U14C U47C, the self-cleavage was found to be 1.36.
Regarding U13C A67G G88U A117G, the self-cleavage was found to be 0.
On to U13C A69G U100C, for which the self-cleavage came out at 0.
In the case of U13C U20A U47A U132C C133U, the self-cleavage is 0.96.
Turning to U13C A69G U73C, the self-cleavage came to 0.
In the case of U13C G25U U102C U143C, the self-cleavage was found to be 0.86.
Consider U13C U15C U112A, for which the self-cleavage turned out to be 1.74.
The result for U13C C37U U73C U130G reads 1.84.
Consider U13C C56U A79C A138G, for which the self-cleavage came out at 0.18.
Consider U13C G36C U52C A79G U87C U115A U132C G139A, for which the self-cleavage stood at 2.04.
To U13C G33C U52A A94G belongs 0.75.
To U13C U14C U143A belongs 2.3; to U13C A67G A78G G105A U115C A117G, 0.54.
As for U13C A57G G60A U102C, the self-cleavage was 0.17.
To U13C U14C U85A U119C belongs 0; to U13C A77G U91C A121G, 0.
U13C A59G U102C A129U: the self-cleavage was 0.
Regarding U13C A31U U62C A77G U112C, the self-cleavage was 0.
With U13C A42G A78G C110A, the self-cleavage came out at 1.55.
The result for U13C A65C A117U A136G reads 0.13.
For the variant U13C A94G U134C, the self-cleavage came to 0.16.
Consider U13C G34U U45C A67G U73C, for which the self-cleavage is 1.15.
The result for U13C A31U G82A U134C reads 1.28.
U13C G33A A57U U100C A136G: the self-cleavage came out at 0.5.
On to U13C A94G U96C, for which the self-cleavage worked out at 0.
To U13C G75A C98A U115A A117G belongs 0.11; to U13C U14C U23C C113U, 1.53.
Turning to U13C A30U U62C U143C, the self-cleavage is 0.2.
In the case of U13C A30G A129G A142G, the self-cleavage was 1.53.
Consider U13C G126A A141G, for which the self-cleavage stood at 1.05.
For the variant U13C A79G A94G, the self-cleavage stood at 0.
Regarding U13C G72A U100C A140U, the self-cleavage was determined as 0.15.
With U13C A50G U100C, the self-cleavage is 0.38.
In the case of U13C G55C U85A, the self-cleavage worked out at 0.08.
Turning to U13C G54U A129G U130C U132C, the self-cleavage amounted to 1.05.
The result for U13C A69U A140U reads 0.28; that for U13C G88A A141G, 0.1.
U13C A31G G49A U100C: the self-cleavage is 0.97.
Regarding U13C A50G U132C, the self-cleavage is 0.45.
For the variant U13C A69G U81C, the self-cleavage was 0.
Turning to U13C A43G U108C A140G, the self-cleavage worked out at 1.41.
To U13C U20C G36U A129G U130A belongs 0.9; to U13C C56A U85C C146U, 0.19.
Regarding U13C A77U U134C U143A, the self-cleavage is 0.51.
The result for U13C C28U A42G A57G A140U reads 0.68.
For the variant U13C G72U U134G, the self-cleavage was 0.98.
On to U13C A69G U91A U143A, for which the self-cleavage amounted to 0.39.
For the variant U13C C110U U112C, the self-cleavage worked out at 1.26.
U13C U20A A22U A107G: the self-cleavage was 0.66.
For the variant U13C U14C U26C U52C G75A, the self-cleavage is 0.7.
To U13C A79C U96A U112A A129G belongs 0.06; to U13C A78U U100A, 1.52.
To U13C C37A U85C U115C belongs 0.33.
On to U13C A43G U96A U119A, for which the self-cleavage was found to be 0.19.
For U13C A57U A59G, the self-cleavage stood at 0.18.
The result for U13C G32U A65U U134G reads 0.15; that for U13C A79G U85A A138G, 0; that for U13C A77G A94G, 0.37.
In the case of U13C C17A U108A U132A, the self-cleavage stood at 0.9.
Consider U13C G33A A117G A138G, for which the self-cleavage came out at 0.72.
To U13C C99U U119C A140G belongs 0.95; to U13C A65G A77G, 0.74; to U13C A57U A67G, 0.44.
On to U13C U15C U109C, for which the self-cleavage stood at 1.2.
To U13C C90U U112C U143C belongs 0.05.
Regarding U13C U14C U46C, the self-cleavage worked out at 1.3.
Take U13C A59G U85C U108C: the self-cleavage came out at 0.
The result for U13C A94G U100C G139A reads 0.48; that for U13C A42G A94U, 0.37.
To U13C U14C G32U U87C A140G belongs 0.3; to U13C U14C G105A G126U, 1.07; to U13C A50G A140G, 0.69.
Consider U13C U14C A65G, for which the self-cleavage was 0.14.
Turning to U13C G74A U130C A141G, the self-cleavage stood at 1.06.
For U13C A59G A142U, the self-cleavage was 0.19.
In the case of U13C A59G A142C, the self-cleavage was 0.08.
For U13C A124G U132C, the self-cleavage amounted to 1.18.
To U13C U14C U26C U46A U119G belongs 0.84.
To U13C A42G U81G belongs 1.14.
Consider U13C U15C U26A A50U U52C, for which the self-cleavage turned out to be 1.12.
For U13C A78G U115A A138G A141G, the self-cleavage was 1.15.
Take U13C A77G U130C: the self-cleavage was found to be 1.84.
Turning to U13C A42G G127A A141G, the self-cleavage stood at 1.84.
For the variant U13C A69G U109C C145U, the self-cleavage worked out at 0.15.
For U13C C19G A31U C37U U87C, the self-cleavage came out at 0.31.
For U13C U20C G49A A77G U115A, the self-cleavage came out at 2.24.
In the case of U13C A50U U52A, the self-cleavage came to 0.89.
U13C U14A C113U: the self-cleavage came out at 1.07.
For U13C A138G U143C, the self-cleavage stood at 1.16.
As for U13C A57U G114A A142U, the self-cleavage was determined as 0.22.
In the case of U13C A124G G125U, the self-cleavage came out at 1.73.
Turning to U13C U15A U96C C113U, the self-cleavage is 0.26.
Take U13C U15C U52C: the self-cleavage was 0.88.
To U13C A117C U130C belongs 2.
U13C A57U A141G: the self-cleavage was determined as 0.1.
Regarding U13C A42G A78G, the self-cleavage was found to be 1.84.
With U13C A42G U62C A142G, the self-cleavage is 0.07.
To U13C C56U U102C C145A belongs 0.07.
Turning to U13C U14C A24U U85A, the self-cleavage worked out at 0.5.
Take U13C A92U A136G A142G: the self-cleavage was 1.38.
As for U13C A78G U96C, the self-cleavage was 0.
The result for U13C U20A C71A U73C G88A U108C reads 0.04; that for U13C A31U A107U U119C A142G, 0.92.
In the case of U13C U14C A142G G144A, the self-cleavage came to 1.39.
To U13C G32A U104C G114A A136G belongs 1.2; to U13C U20A G35U A67G, 0.23; to U13C C28U A57U, 0.11.
Take U13C U14C U23G A124U: the self-cleavage was found to be 0.92.
On to U13C A77G U108C, for which the self-cleavage amounted to 0.71.
